The whole screen tested about 310,000 compounds, of which about 2,200 (0.71%) showed an effect of 50% or more. The effect is printed as a negative number. This is one part of the list.
target: human ether-à-go-go-related gene (hERG) potassium channel (human, UniProt Q12809); assay: primary screen, population patch clamp on CHO cells stably expressing hERG
Sequence (Q12809 whole entry, looked up): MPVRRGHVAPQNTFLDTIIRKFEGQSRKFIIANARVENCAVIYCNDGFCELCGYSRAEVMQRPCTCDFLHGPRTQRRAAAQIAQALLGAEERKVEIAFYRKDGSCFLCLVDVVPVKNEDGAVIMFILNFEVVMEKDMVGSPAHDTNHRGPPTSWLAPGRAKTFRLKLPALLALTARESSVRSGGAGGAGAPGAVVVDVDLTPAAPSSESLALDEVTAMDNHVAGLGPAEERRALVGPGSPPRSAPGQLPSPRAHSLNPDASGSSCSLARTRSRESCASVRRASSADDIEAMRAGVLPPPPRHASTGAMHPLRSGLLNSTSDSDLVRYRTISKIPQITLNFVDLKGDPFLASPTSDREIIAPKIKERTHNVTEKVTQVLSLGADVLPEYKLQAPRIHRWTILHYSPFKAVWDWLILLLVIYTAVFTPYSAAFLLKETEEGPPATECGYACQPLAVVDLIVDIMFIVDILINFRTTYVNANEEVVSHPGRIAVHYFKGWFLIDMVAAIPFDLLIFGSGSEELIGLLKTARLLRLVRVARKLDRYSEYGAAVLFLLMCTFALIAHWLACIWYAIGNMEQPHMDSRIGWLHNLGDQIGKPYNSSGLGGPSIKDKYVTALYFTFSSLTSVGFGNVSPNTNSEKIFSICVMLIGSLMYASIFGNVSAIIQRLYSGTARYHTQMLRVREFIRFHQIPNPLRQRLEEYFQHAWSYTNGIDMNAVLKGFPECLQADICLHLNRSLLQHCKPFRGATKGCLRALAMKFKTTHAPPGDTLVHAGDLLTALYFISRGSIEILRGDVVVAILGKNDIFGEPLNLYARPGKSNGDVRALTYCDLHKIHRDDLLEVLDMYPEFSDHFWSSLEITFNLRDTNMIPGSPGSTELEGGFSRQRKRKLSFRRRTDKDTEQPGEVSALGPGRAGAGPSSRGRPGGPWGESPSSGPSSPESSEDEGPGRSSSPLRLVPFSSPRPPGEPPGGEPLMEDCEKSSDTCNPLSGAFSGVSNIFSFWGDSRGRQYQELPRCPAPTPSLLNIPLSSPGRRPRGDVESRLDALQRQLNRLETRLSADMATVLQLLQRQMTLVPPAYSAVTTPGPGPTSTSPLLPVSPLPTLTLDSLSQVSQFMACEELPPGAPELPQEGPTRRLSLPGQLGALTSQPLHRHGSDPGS

Structure (SMILES)	hERG current change (%, negative = inhibition) at 1uM [%]
COCCN1C(=O)NC(=O)/C(=C\c2ccc(Br)cc2)C1=O	12.9
O=S(=O)(c1cccs1)n1cnc2ccccc21	10.8
COCCn1nnnc1C(c1cccs1)N1CCN(c2cc(C)ccc2C)CC1.Cl (stereo not shown)	10.2
COc1ccc(S(=O)(=O)N(CC(=O)NCc2ccccn2)c2ccc(Cl)cc2)cc1	8.88
COc1cccc(/C(O)=C2/C(=O)C(=O)N(c3cc(C)on3)C2c2cccs2)c1 (stereo not shown)	10.1
Cc1ccc(C(NC(=O)C(C)C)c2cc([N+](=O)[O-])c3cccnc3c2O)cc1 (stereo not shown)	4.11
Cc1ccc(NC(=O)CSc2n[nH]c(-c3cccnc3)n2)c(Br)c1	14.2
CCN(Cc1ccccc1)c1ccc(/C=N/NS(=O)(=O)c2cccc([N+](=O)[O-])c2)cc1	5.72
Cc1ccc(COCCN2CCN(S(=O)(=O)c3ccccc3)CCC2=O)cc1	-1.77
Clc1ccc(Cn2c(-c3cccnc3Cl)nc3ccccc32)c(Cl)c1	0.318
O=C(CCCN1C(=O)c2ccccc2C1=O)N1CCOCC1	14.4
COC(=O)CCC(=O)Nc1ccc(S(=O)(=O)N2CCCCCC2)cc1	-11.4
COc1cc(/C=N/NC(=O)c2cc(-c3ccccc3OC(C)C)nc3ccccc23)ccc1O	6.54
FC(F)Oc1ccc(-n2cc(-c3ccc(Cl)cc3)[n+]3c2CCCCC3)cc1.[Br-]	-45.2
COc1ccc(C2/C(=C(/O)c3ccc4c(c3)CC(C)O4)C(=O)C(=O)N2CCN2CCOCC2)cc1 (stereo not shown)	5.07
COC(=O)c1ccsc1NC(=O)c1cccc(OC)c1	7.72
C=CCc1cc(C=C2C(=O)NC(=O)NC2=O)cc(OC)c1OCc1ccc(C(=O)O)cc1	14.7
CCCC(=O)Oc1ccc(C2NC(=O)c3ccccc3O2)cc1OC (stereo not shown)	13.7
O=C(CC1Oc2ccccc2NC1=O)NCc1ccc(Cl)cc1 (stereo not shown)	10.6
CC(C)Oc1ccc(C2C(C#N)=C(N)Oc3c2oc(CO)cc3=O)cc1 (stereo not shown)	9.22
C/C(=N/NC(=O)CN1CCN(S(=O)(=O)c2ccc(C)cc2)CC1)c1cccc(O)c1	1.38
O=C(NNC(=O)c1cc(Cl)ccc1O)c1ccc(NS(=O)(=O)c2cccs2)cc1	3.26
CCOC(=O)C1(Cc2ccccc2)CCN(Cc2cnn(CC)c2)CC1	1.92
C=CCNC(=O)COC(=O)CCC(=O)c1cccs1	5.9
CCN1C2=C(C(=O)CCC2)C(c2ccc(O)cc2)C2=C1CCCC2=O	10.1
CCn1c(SCC(=O)Nc2ccc(N3CCOCC3)cc2)nnc1-c1ccco1	3.03
CCOC(=O)c1c(C)[nH]c(C)c1S(=O)(=O)N(C)CC(=O)NCc1cccc(Br)c1	-2.62
C[C@@H]1CCCCCCCCC(=O)OCCN1C(=O)OC(C)(C)C	5.96

Structure (SMILES)	hERG current change (%, negative = inhibition) at 1uM [%]
Cc1ccc(N(Cc2ccc(C(=O)NCCSc3ccccn3)cc2)S(C)(=O)=O)cc1C	8.27
Cc1ccc(NS(=O)(=O)c2ccc3[nH]c(=O)[nH]c3c2)cc1	14.5
CC(C)c1ccccc1NC(=O)COc1ccc2c(=O)c(Oc3ccc4ccccc4c3)coc2c1	12.5
COC(=O)c1ccc(CNC(=O)COc2ccccc2Br)o1	12.4
C/C(=N\NC(=O)COc1ccc(C)cc1[N+](=O)[O-])c1cccs1	13
COc1ccc(C(C)=O)cc1CC(=O)NC1CCCCCC1	6.38
Cc1ccc(CCNS(=O)(=O)c2cc3c(cc2C)n(C)c(=O)c(=O)n3C)cc1	-3.22
O=[N+]([O-])c1ccc(Nc2ccccc2)cc1	8.55
CCOCCCNC(=O)c1cn(CC(C)C)c(=O)c2c1c1ccccc1n2C	14.7
Cc1ccc(C(=O)N2CCN(S(=O)(=O)c3ccc(C)c([N+](=O)[O-])c3)C2)cc1	-9.1
CS/C(=C\[N+](=O)[O-])Nc1ccc(Cl)cc1	-0.306
C=CCc1cc(Cl)ccc1OC(=O)Nc1cccc(Cl)c1	5.9
COc1cc(/C=C2\C(=O)ON=C2c2ccccc2)cc(Cl)c1O	-1.92
CCC(=O)Nc1c2c(nn1-c1ccc([N+](=O)[O-])cc1)CS(=O)(=O)C2	14.3
NC(=O)C1CCN(Cc2nc3ccccc3c(=O)[nH]2)CC1	12.6
O=C(c1ccc(Br)cc1)N1CCCc2ccccc21	7.16
COc1ccc(/C=N/NC(=O)CCCC(=O)NC2CCCCC2)cc1	16.9
Cc1nc(-c2cccc(NS(=O)(=O)c3ccccc3)c2)cs1	2.72
Cc1[nH]nc2c1C(c1ccc(-c3ccccc3C#N)o1)C(C#N)=C(N)O2 (stereo not shown)	7.6
CC1=C(C)CC(C(=O)NCCc2ccc(F)cc2)C(C(=O)O)C1 (stereo not shown)	11.5
CN1C(=O)CC(n2c(CO)nc3ccccc32)C1=O (stereo not shown)	8.7
COc1cc(/C=C2\C(=N)N3N=CSC3=NC2=O)cc(Br)c1OC(=O)c1ccco1	2.37
CCOC(=O)c1ccc(CC(=O)c2ccc(O)cc2O)o1	5.66
Cc1ccc2cc(CCNC(=O)c3ccco3)c(=O)[nH]c2c1	7.95
O=S(=O)(NCc1ccc(F)cc1)c1ccc(-c2cnc(C3CC3)o2)cc1	13.7
CC(Oc1ccc(Cl)cc1)C(=O)N1CCN(C(=O)c2ccco2)CC1 (stereo not shown)	5.48
COc1ccc(N(CC(=O)NC2CCCCC2)C(=O)CNC(=O)c2cccs2)cc1OC	11.8

— PMC4336329 (PLoS ONE, 2015)
